Data taken from the supplement of paper PMC10600219.
Where a name gives a salt, the structure may show the parent alone. Over roughly 2,800 compounds, “cell viability relative to vehicle” has its median near 0.98; the lowest 2% begin near 0.45. Some of the results follow.

Tested on: NCI-H2228 alectinib-DTP
Assay: cell viability relative to vehicle (fraction of vehicle); NCI-H2228 is an ALK-positive lung cancer line and DTP means drug-tolerant persister; higher = less growth inhibition
Settings: 100 nM; treatment time 6 days
Procedure, shortened: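 NCI-H2228 parental cells and drug-tolerant persister cells were plated in 384-well plates; the persisters had been generated with 1000 nM of a targeted drug over 13 days. One day later, the 3114-agent TargetMol anti-cancer compound library was added at 100 nM, with DMSO serving as vehicle. ATP was measured 6 days after that using the CellTiter-Glo 3D Cell Viability Assay. Values are cell viability expressed relative to vehicle-treated cells.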

| SMILES | cell viability |
| --- | --- |
| Cc1nc(-c2ccc(OCC(C)C)c(C#N)c2)sc1C(=O)O [Febuxostat] | 1.12 |
| COc1cc(O)c2c(=O)cc(-c3ccc(O)cc3)oc2c1 [Genkwanin] | 1.15 |
| CC(C)c1ccc2c(c1)c(SC(C)(C)C)c(CC(C)(C)C(=O)O)n2Cc1ccc(Cl)cc1 | 1.06 |
| Cn1cc(-c2cc(Oc3cc(F)c(NC(=O)C4(C(=O)Nc5ccccc5)CC4)cc3F)ccn2)cn1 | 1.06 |
| CCN1CCN(Cc2ccc(-c3cc4c(N[C@H](C)c5ccccc5)ncnc4[nH]3)cc2)CC1 | 0.839 |
| Cc1nc(Nc2ncc(C(=O)Nc3c(C)cccc3Cl)s2)cc(N2CCN(CCO)CC2)n1 [Dasatinib] | 0.348 |
| Cc1nc(Nc2ncc(C(=O)Nc3c(C)cccc3Cl)s2)cc(N2CCN(CCO)CC2)n1 [Dasatinib monohydrate] | 0.489 |
| CCN(CCO)CCCC(C)Nc1ccnc2cc(Cl)ccc12 (stereo unspecified) [Hydroxychloroquine sulfate] | 0.922 |
| COc1cc(N2CCC(N3CCN(C)CC3)CC2)ccc1Nc1ncnc(Nc2ccccc2S(=O)(=O)C(C)C)n1 | 0.933 |
| NC(=O)c1ccc[n+]([O-])c1 [Nicotinamide-N-oxide] | 1.17 |
| COc1cc([C@@H]2c3cc4c(cc3[C@@H](O[C@@H]3O[C@@H]5CO[C@@H](c6cccs6)O[C@H]5[C@H](O)[C@H]3O)[C@H]3COC(=O)[C@H]23)OCO4)cc(OC)c1O [Teniposide] | 0.653 |
| COc1ccc(-c2coc3cc(O)ccc3c2=O)cc1O [Calycosin] | 1.01 |
| O=C1NC(=O)/C(=C/c2ccc3c(c2)OC(F)(F)O3)S1 | 1.03 |
| CC(=O)N1CCC2(CC1)c1cc(C#C[C@H]3O[C@H](CO)[C@@H](O)[C@H](O)[C@@H]3O)ccc1-c1ccc(C#C[C@H]3O[C@H](CO)[C@@H](O)[C@H](O)[C@@H]3O)cc12 [Antibiotic-202] | 1.07 |
| CN(C)CCCN1c2ccccc2Sc2ccc(Cl)cc21 [Chlorpromazine hydrochloride] | 1.05 |
| Nc1ccc(C(=O)Nc2cccc(-c3nc(N4CCOCC4)c4oc5ncccc5c4n3)c2)cn1 | 0.986 |
| O=C(O)c1c[nH]c2cc(Cl)c(-c3ccc(C4(O)CCC4)cc3)cc12 | 0.943 |
| O=c1ccc2ccccc2o1 [Coumarin] | 1.18 |
| Cc1nc(-c2cccnc2)sc1C(=O)Nc1ccccc1-c1cn2c(CN3CCOCC3)csc2n1 | 0.972 |
| Cc1[nH]c2ccccc2c1CCNCc1ccc(/C=C/C(=O)NO)cc1 [Panobinostat] | 0.22 |
| COc1ccnc(C[S+]([O-])c2nc3cc(OC(F)F)ccc3[nH]2)c1OC (stereo unspecified) [Pantoprazole sodium] | 0.918 |
| COc1ccnc(C[S+]([O-])c2nc3cc(OC(F)F)ccc3[nH]2)c1OC (stereo unspecified) [Pantoprazole Sodium Hydrate] | 1.03 |
| Cc1cc(C)c(S(=O)(=O)n2cc(C)cc2C)c(C)c1 | 1.12 |
| Nc1ncnc2c1ncn2C1CCCO1 (stereo unspecified) | 0.981 |
| Nc1ccn([C@@H]2O[C@H](CO)[C@@H](O)[C@@H]2O)c(=O)n1 [Cytarabine] | 0.825 |
| Nc1ccc(S(=O)(=O)Nc2ccccn2)cc1 [Sulfapyridine] | 1.23 |

| SMILES | cell viability |
| --- | --- |
| O=C(O)[C@H]1O[C@@H](Oc2cc3oc(-c4ccccc4)cc(=O)c3c(O)c2O)[C@H](O)[C@@H](O)[C@@H]1O [Baicalin] | 1.04 |
| Cn1cc(-c2ccncc2)c(-c2ccc(OCc3ccc4ccccc4n3)cc2)n1 | 1.07 |
| C=CC(=O)Nc1ccc(CN2C(=O)N(c3cc(OC)cc(OC)c3)Cc3cnc(Nc4ccc(N5CCN(C)CC5)cc4)nc32)cc1 | 0.753 |
| COc1ccc(C[C@@H]2c3cc(Oc4cc(C[C@@H]5c6cc(OC)c(OC)cc6CCN5C)ccc4O)c(OC)cc3CCN2C)cc1 [Neferine] | 1.2 |
| COC1CCN(C(=O)c2cc(Cc3n[nH]c(=O)c4ccccc34)ccc2F)CC1 | 0.874 |
| Oc1c(F)cc(-c2cnccc2-c2ccc(N3CCOCC3)cc2)cc1F | 0.915 |
| CCCCCCCCCCCCc1ccc(S(=O)(=O)Nc2nncs2)cc1 | 0.924 |
| OC(CCCN1CCCCC1)(c1ccccc1)c1ccccc1 [Diphenidol hydrochloride] | 0.938 |
| CCN(CC)CCOC(=O)C(c1ccccc1)c1ccccc1 [Adiphenine hydrochloride] | 1.08 |
| C[C@H]1[C@H](C)CC[C@]2(C(=O)O)CC[C@]3(C)C(=CC[C@@H]4[C@@]5(C)C[C@@H](O)[C@H](O)[C@@](C)(CO)[C@@H]5CC[C@]43C)[C@H]12 [Asiatic acid] | 1.01 |
| CC(CCc1ccccn1)(CCc1ccccn1)C(=O)c1ccccc1 [JAK2 Inhibitor V] | 1.03 |
| CCOC(=O)c1ccc(N)cc1 [Benzocaine] | 0.806 |
| CN1CCN(c2c(F)cc3c(=O)c(C(=O)O)cn4c3c2OCN4C)CC1 [Marbofloxacin] | 0.957 |
| Cc1ccc(S(=O)(=O)NC(=O)NN2CCCCCC2)cc1 [Tolazamide] | 0.958 |
| COC(=O)c1ccc([C@H]2c3[nH]c4ccccc4c3C[C@H](C(=O)OC)N2C(=O)CCl)cc1 | 0.0417 |
| C[C@]12CC[C@@H]3c4ccc(OS(=O)(=O)O)cc4CC[C@H]3[C@@H]1CCC2=O [Estropipate] | 1.08 |
| C=CC(C)(C)c1cc(/C=C/C(=O)c2ccc(O)cc2)c(OC)cc1O [Licochalcone A] | 1 |
| CC(=O)OCC1=CO[C@@H](OC(=O)CC(C)C)[C@H]2C1=C[C@H](OC(=O)CC(C)C)[C@]21CO1 [Valepotriate] | 1.19 |
| CC/C(=C(/c1ccc(/C=C/C(=O)O)cc1)c1ccc2[nH]ncc2c1)c1ccc(F)cc1Cl | 1.07 |
| COc1cc(C(C)=O)ccc1O [Acetovanillone] | 1.07 |
| CCCCCCCCCCCCCCCCOP(=O)([O-])OCC[N+](C)(C)C [Miltefosine] | 1.16 |
| CN(Cc1cnc2nc(N)nc(N)c2n1)c1ccc(C(=O)N[C@@H](CCC(=O)O)C(=O)O)cc1 [Methotrexate] | 0.68 |
| N[C@@H](Cc1ccc(O)cc1)C(=O)O [Tyrosine] | 1.23 |
| O=C(Nc1nccs1)C(c1cc(F)ccc1O)N1Cc2ccccc2C1=O (stereo unspecified) | 0.897 |
| Nc1cc(F)ccc1NC(=O)/C=C/c1cnn(C/C=C/c2ccccc2)c1 | 0.925 |
